Data reported in PMC5145805, “Structural Basis for Selective Interaction between the ESCRT Regulator HD-PTP and UBAP1” (Structure(London, England:1993), 2016).
No constants are given. Whether binding was seen depends on the method and setting. For part of these data: Binding seen in cells or lysates may run through a third protein. Some entries that bind do so weakly or less than the wild type. For part of these data: Tags and fused reporters may be left off the sequences shown.

Protein sequences, listed by entry. Tags and fused reporters are not part of them. Residues count along the entry.
UniProt Q8WUM4, residues 358-702: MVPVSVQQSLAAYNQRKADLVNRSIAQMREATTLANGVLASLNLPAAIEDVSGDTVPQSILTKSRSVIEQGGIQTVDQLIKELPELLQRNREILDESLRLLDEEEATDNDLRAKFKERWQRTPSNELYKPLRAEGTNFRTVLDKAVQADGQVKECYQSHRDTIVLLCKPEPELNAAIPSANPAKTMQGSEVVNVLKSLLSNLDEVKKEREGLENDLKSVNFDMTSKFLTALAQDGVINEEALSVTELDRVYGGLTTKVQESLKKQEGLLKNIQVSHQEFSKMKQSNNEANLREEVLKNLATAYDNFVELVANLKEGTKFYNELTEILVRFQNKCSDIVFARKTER

Key:
[1] = target: T1, MTSL-labeled HD-PTPCC C697S mutant (UniProt Q9H3S7); test: NMR paramagnetic relaxation enhancement (PRE); 1H-13C HSQC of UBAP1C with MTSL-labeled HD-PTPCC C697S, oxidised against reduced with 10-fold excess sodium ascorbate; same conditions as the HSQC experiment; both purified
T1 sequence (chain, MTSL (methanethiosulfonate spin label) on C425 and C628): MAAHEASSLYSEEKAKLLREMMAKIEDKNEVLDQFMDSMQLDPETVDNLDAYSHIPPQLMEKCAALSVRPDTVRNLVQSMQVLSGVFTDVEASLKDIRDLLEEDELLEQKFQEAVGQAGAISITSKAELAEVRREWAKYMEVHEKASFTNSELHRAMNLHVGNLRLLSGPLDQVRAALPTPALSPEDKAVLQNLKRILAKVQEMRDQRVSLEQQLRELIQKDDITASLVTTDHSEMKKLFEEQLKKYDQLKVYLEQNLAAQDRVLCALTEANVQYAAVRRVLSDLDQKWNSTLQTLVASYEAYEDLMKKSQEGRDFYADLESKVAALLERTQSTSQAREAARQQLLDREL

[2] = target: AlixV (V domain of Alix, residues 358-702) (UniProt Q8WUM4); test: SPR; Figure 7B; the legend does not name the method and the text says 'in solution'; taken as the biosensor set-up of the methods (protein immobilised, peptide injected); both purified
[3] = target: T2, HD-PTPCC (coiled-coil domain of HD-PTP, residues 363-712) (UniProt Q9H3S7); test: NMR titration; 1H-13C HSQC of UBAP1C (1 mg/mL, ~0.5 mM, natural abundance 13C) in PBS in D2O pD 7.5, without and with 60 uM HD-PTPCC; 800 MHz; both purified
T2 sequence: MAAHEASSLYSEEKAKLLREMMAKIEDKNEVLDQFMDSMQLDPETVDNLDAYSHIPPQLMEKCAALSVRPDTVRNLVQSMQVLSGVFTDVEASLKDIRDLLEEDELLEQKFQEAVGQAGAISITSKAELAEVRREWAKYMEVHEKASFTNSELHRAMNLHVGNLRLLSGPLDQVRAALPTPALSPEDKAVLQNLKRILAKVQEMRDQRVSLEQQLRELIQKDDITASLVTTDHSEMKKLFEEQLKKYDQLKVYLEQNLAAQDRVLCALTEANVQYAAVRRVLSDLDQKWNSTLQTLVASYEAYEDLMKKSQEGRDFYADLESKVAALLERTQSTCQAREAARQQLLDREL

[4] = target: T3, HD-PTPCC (residues 363-712), His6 tag removed, as crystallised (UniProt Q9H3S7); test: crystal structure; HD-PTPCC (1 mg/mL, His6 removed) mixed with 1 mM UBAP1 peptide, concentrated to 11 mg/mL; 0.2 M KSCN, 20% PEG3350; 2.55 A; both purified
T3 sequence: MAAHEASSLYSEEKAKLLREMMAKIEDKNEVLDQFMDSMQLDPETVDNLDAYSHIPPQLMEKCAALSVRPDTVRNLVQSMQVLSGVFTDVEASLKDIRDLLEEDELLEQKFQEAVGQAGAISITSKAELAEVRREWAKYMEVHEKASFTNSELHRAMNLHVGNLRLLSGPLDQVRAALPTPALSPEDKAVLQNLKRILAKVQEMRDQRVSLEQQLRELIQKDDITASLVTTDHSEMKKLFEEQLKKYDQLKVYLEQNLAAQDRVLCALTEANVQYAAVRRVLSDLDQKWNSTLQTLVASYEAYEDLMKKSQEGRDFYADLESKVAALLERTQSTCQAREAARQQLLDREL

[5] = target: T4, HD-PTPCC F678D (UniProt Q9H3S7); test: SPR; ProteOn XPR36; HD-PTP constructs (50-100 ug/mL) immobilised on an HTE chip, peptides injected (50 uL at 100 uL/min); 25 C; 10 mM HEPES pH 7.4, 150 mM NaCl, 0.05% Tween 20; equilibrium binding model; both purified
T4 sequence: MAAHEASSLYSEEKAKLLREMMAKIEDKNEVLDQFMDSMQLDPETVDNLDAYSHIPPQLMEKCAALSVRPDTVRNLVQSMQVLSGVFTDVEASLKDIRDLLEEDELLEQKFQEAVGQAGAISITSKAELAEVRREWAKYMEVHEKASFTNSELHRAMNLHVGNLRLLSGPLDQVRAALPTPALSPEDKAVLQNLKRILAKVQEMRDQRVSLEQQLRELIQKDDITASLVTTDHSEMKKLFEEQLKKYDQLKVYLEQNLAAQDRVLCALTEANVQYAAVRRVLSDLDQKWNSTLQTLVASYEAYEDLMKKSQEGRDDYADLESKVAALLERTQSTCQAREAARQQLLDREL

[6] = target: T5, HD-PTP_(Bro1) (residues 1-361) (UniProt Q9H3S7); test: as above
T5 sequence: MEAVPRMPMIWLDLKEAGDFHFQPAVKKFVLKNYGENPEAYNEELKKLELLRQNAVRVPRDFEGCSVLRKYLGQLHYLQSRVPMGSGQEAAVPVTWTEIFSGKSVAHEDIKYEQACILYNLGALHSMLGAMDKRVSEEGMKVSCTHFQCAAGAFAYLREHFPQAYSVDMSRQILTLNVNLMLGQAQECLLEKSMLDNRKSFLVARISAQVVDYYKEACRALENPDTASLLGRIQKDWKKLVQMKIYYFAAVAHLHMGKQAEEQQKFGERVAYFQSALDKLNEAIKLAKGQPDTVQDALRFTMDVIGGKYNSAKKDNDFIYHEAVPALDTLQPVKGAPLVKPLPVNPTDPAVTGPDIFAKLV

[7] = target: T6, HD-PTP_(Bro1-CC) (residues 1-714), His6-tagged (UniProt Q9H3S7); test: co-IP; 20 uL in vitro translated 35S-UBAP1-strep with 5 ug His6-HD-PTP_(Bro1-CC) in 20 mM HEPES pH 7.4, 100 mM NaCl, 1 mM MgCl2, 1% Triton X-100, 4 C; anti-His antibody and protein A-Sepharose; only the target purified
T6 sequence: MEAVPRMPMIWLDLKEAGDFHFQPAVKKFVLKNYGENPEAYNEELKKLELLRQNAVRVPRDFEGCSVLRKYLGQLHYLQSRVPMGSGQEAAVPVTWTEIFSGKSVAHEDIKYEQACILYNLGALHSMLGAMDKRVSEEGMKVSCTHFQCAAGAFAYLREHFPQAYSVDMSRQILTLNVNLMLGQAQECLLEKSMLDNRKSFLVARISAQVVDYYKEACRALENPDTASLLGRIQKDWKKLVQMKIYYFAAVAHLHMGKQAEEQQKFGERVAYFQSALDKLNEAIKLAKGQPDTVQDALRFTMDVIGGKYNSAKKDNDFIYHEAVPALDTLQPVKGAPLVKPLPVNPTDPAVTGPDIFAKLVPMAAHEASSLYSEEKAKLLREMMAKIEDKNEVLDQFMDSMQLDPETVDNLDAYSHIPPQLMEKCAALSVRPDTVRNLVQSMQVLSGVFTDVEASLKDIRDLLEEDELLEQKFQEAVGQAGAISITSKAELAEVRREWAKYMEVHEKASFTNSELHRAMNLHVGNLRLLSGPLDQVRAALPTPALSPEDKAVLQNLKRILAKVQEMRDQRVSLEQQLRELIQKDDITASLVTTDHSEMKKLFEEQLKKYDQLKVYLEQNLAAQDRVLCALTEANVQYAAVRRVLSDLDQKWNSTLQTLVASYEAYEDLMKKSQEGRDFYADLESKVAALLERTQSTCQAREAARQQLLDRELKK

[8] = target: T2, HD-PTPCC (coiled-coil domain of HD-PTP, residues 363-712); test: SPR; ProteOn XPR36; HD-PTP constructs (50-100 ug/mL) immobilised on an HTE chip, peptides injected (50 uL at 100 uL/min); 25 C; 10 mM HEPES pH 7.4, 150 mM NaCl, 0.05% Tween 20; equilibrium binding model; both purified
[9] = target: T6, HD-PTP_(Bro1-CC) (residues 1-714), His6-tagged; test: as above

With SNIKSLSFPKLDSDDSNQKT (peptide, UniProt Q9NZ09 261-280, looked up, also called UBAP1C peptide) [UBAP1C (UBAP1 peptide containing residues 261-280)] the binding [1] was “binds”, the binding [2] was “no binding” and the binding [3] was “binds”. The binding [4] was “binds”, the binding [5] was “no binding” and the binding [6] was “no binding”.

B1: UBAP1-strep, full-length, in vitro translated (protein, UniProt Q9NZ09 1-502)
chain: MASKKLGADFHGTFSYLDDVPFKTGDKFKTPAKVGLPIGFSLPDCLQVVREVQYDFSLEKKTIEWAEEIKKIEEAEREAECKIAEAEAKVNSKSGPEGDSKMSFSKTHSTATMPPPINPILASLQHNSILTPTRVSSSATKQKVLSPPHIKADFNLADFECEEDPFDNLELKTIDEKEELRNILVGTTGPIMAQLLDNNLPRGGSGSVLQDEEVLASLERATLDFKPLHKPNGFITLPQLGNCEKMSLSSKVSLPPIPAVSNIKSLSFPKLDSDDSNQKTAKLASTFHSTSCLRNGTFQNSLKPSTQSSASELNGHHTLGLSALNLDSGTEMPALTSSQMPSLSVLSVCTEESSPPNTGPTVTPPNFSVSQVPNMPSCPQAYSELQMLSPSERQCVETVVNMGYSYECVLRAMKKKGENIEQILDYLFAHGQLCEKGFDPLLVEEALEMHQCSEEKMMEFLQLMSKFKEMGFELKDIKEVLLLHNNDQDNALEDLMARAGAS
modifications: 35S-methionine labelled
For B1, the binding [7] was “binds”.

In the case of SNIKSLSSPKLDSDDSNQKT (peptide, UniProt Q9NZ09 261-280) [UBAP1C peptide containing the F268S substitution], the binding [8] is reported as “no binding” and the binding [9] is reported as “no binding”.
